PubChem BioAssay AID1347073 (National Center for Advancing Translational Sciences (NCATS), 2019)
Screen size: about 45,000 compounds; about 200 (0.44%) were called active. Not shown: some 7% with an inconclusive outcome. Calls come from the whole dose curve; as a rule, active = well fitted activation curve with a large enough effect; inconclusive = small, poorly fitted or top-dose-only effect; inactive = no such curve, though single readings can be large or run the other way. The list shows a part of the results.

Test: qHTS of TDP-43 Inhibitors: NCGC Sytravon Library Screen; note: 0% is about no effect; nearly all actives have a fitted effect of over 55% in size
Details: yeast TDP-43 toxicity rescue, BacTiter-Glo growth, 24 h; series mostly up to 46.1 µM; growth rescue (activation): at the top concentration
In short: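 TDP-43-expressing yeast, pregrown in raffinose, seeded at OD600 0.02 in galactose medium with compound for 24 hr at 30 deg C. Growth read by BacTiter-Glo luminescence, so rescue of toxicity appears as activation.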

Structure (SMILES)	growth rescue (activation)
COc1ccc(NC(=O)NCc2cccn2C)c(OC)c1	inactive: -8.47%
CCc1nnc(NC(=O)CSc2nnc3nc(C)cc(C)n23)s1	inactive: -4.69%
CCc1ccc(NC(=O)N2CC=C(c3c[nH]c4ccccc34)CC2)cc1	inactive: 17.5%
Cc1ccc(C2(C)NC(=O)N(CC(=O)NCc3ccccc3Cl)C2=O)cc1 (centres undefined)	inactive: 8.59%
CC(C)c1ccc(OCC(=O)N2CCN(c3ccccn3)CC2)c(Br)c1	inactive: -4.97%
Cc1ccc(N(CCC#N)C(=O)CN2C(=O)NC(Cc3ccccc3)C2=O)cc1 (centres undefined)	inactive: 10.1%
Fc1ccccc1Nc1nc2ccccc2o1	inactive: -10.9%
Cc1cc(C)c2c(n1)nn1c(C)c(CCC(=O)Nc3ccc(C)c(Cl)c3)c(C)nc21	inactive: 5.71%
CC1(Cc2cc(Cl)ccc2C(F)(F)F)C(=O)Nc2ccc(S(=O)(=O)NC3CCCCC3)cc21 (centres undefined)	inactive: -9.51%
Cc1cccc(NC(=O)CCNS(=O)(=O)c2cccc3nonc23)c1C	inactive: -4.53%
Cc1cc(-c2nc3ncccc3o2)ccc1NC(=O)c1ccc([N+](=O)[O-])o1	inactive: -6.36%
COC(=O)c1cc(Br)ccc1NC(=O)CCNC(=O)c1ccco1	inactive: 10%
COc1ccc(N(C)C(=O)Nc2ccc3nsnc3c2)cc1	inactive: 26.6%
Cc1cc(N2CCN(C)CC2)nc2ccc(NC(=O)CCC(=O)N3CCN(c4ccc([N+](=O)[O-])cc4)CC3)cc12	inactive: 10.9%
O=C(O)c1cccc(S(=O)(=O)Nc2ccc(N3CCCCC3)cc2)c1	inactive: 22.2%
COCCNc1nnc(Cc2ccccc2)c(=O)[nH]1	inactive: -0.0189%
COc1ccc(OCCOC(=O)c2[nH]c(C)c(C(C)=O)c2C)cc1	inactive: 6.41%
O=C(CCNC(=O)c1ccccc1)NC1CCCc2ccccc21 (centres undefined)	inactive: 23.4%
CCN(CC)c1ccc(C(=O)OCC(=O)N2CCN(c3ccccc3)CC2)cc1	inactive: 14.8%
CC(OC(=O)c1nc(-c2ccccc2)n(-c2ccccc2)n1)C(=O)Nc1cc(Cl)cc(Cl)c1 (centres undefined)	inactive: 15.4%
O=C(NCCCn1ccnc1)/C(=C\c1cccnc1)NC(=O)c1ccco1	inactive: 4.34%
CC1(C(=O)NS(=O)(=O)c2cccc(C#N)c2)CCN1C(=O)CC1CCCCC1 (centres undefined)	inactive: 3.11%
CCc1nnc(NC(=O)CCS(=O)(=O)Cc2ccccc2)s1	inactive: 3.74%
Cc1cccc(C)c1Nc1nnc(SCc2nc3ccccc3c(=O)[nH]2)s1	inactive: -15.2%
COc1cc(NS(=O)(=O)c2ccc(NC(=O)CCC(=O)O)cc2)nc(OC)n1	inactive: -26.4%
O=C(COC(=O)CNC(=O)c1ccccc1F)NCCC1=CCCCC1	inactive: -2.34%
CCOC(=O)C1CCCN(c2nc3ccccc3nc2C(C#N)C(=O)OC(C)COC)C1 (centres undefined)	inactive: 20.7%
C=Cc1ccc2c(c1)N(C)C(=C)S2	inactive: 26.4%
COc1cc(/C=C2/C(=O)NN(c3ccc(F)cc3)C2=O)cc(Cl)c1O	inactive: -1.28%
